The values below come from patent US10821151B2, “Compositions and methods for treating cancer and persistent viral infections” (SUSAVION BIOSCIENCES, INC., priority 2015, dated 2020).

This assay concerns human PBMCs. Put plainly: Human Phospho-Kinase Array on PBMC lysates. The conditions noted are these: 100 nM. As to the method: FIG. 13A and FIG. 13B illustrates the changes in phosphorylation of signal transduction kinases in human PBMCs in culture treated with 100 nM SV6D for 5, 10 or 15 min. Cell lysates were spread on an array of capture antibodies and phosphorylated forms were detected with a Human Phospho-Kinase Array (R&D Systems (Minneapolis, Minn.).
To determine whether binding of SV6D to cell-surface receptors would transfer signals to the cytoplasm of cells, cultures of PBMCs were incubated with 100 nM SV6D and samples were removed after 5, 10 or 15 minutes and compared with the phosphorylation state of signal transduction kinase intermediates in untreated cells. As illustrated in FIGS. 13A and 13B, the phosphorylated form of several intermediates changed rapidly and dramatically. […] These rapid changes may represent remodeling of the phosphor-proteins.

With [NQHTPRGGGS]4K3-NH2 [SV6D], the “phosphorylated forms of proteins p53, CREB and PRAS40” value is given as “markedly decreased” (10 minutes) and “rebounded” (15 minutes).
